# Source: article doi:10.1101/2020.07.27.219618, “Weak catch bonds make strong networks” (bioRxiv, 2020)
# Target: Actin filaments (actin purified from rabbit psoas skeletal muscle) (rabbit, UniProt P68135)
# Assay: co-sedimentation; G-actin at 6 increasing concentrations co-polymerized with 0.1 μM crosslinker in F-buffer for 2 h at room temperature (legend: 25 °C), spun at 120 000 g; unbound crosslinker in the supernatant quantified by SDS-PAGE; fraction bound fitted against actin concentration
# Conditions: both partners purified
binder,measurement,value
"Human α-actinin-4 K255E point mutant (natural protein, α-actinin-4, human, with the disease-associated point mutation K255E (focal segmental glomerulosclerosis type 1); also called K255E mutant; slip bond crosslinker; source: E. coli, purified (nickel column, gel filtration)) not shown",Ka,1.56e+07 M⁻¹
